This series concerns the molecule itself. In words: SEC-SAXS.

The term stoichiometry N denotes a count of units in the complex or per binding partner.

B1: BECN1 coiled-coil domain (CCD), […] (domain or fragment)
chain: not shown
Consider B1, for which the binding result is “binds”.

B2: BECN1 FHD-CCD, […] (domain or fragment)
chain: not shown
As to B2, the “stoichiometry N” value turned out to be 2.

(Values after publication PMC4876825 (Biochemistry, 2016).)
